Test results: patent publication US20180230235A1 (Affibody, published 2018)

Columns and labels:
[1] = biological target: T1, CAIX on the surface of LS174T and SK-RC-52 cells (UniProt Q16790 38-459); assay: flow cytometry on LS174T cells, 10 ug/ml
[2] = biological target: Human CAIX (carbonic anhydrase IX) (human, UniProt Q16790 59-414); assay: SPR (Biacore 2000), human CAIX immobilized on a CM5 chip, analyte 1 µM, blank surface subtracted
[3] = biological target: T1, CAIX on the surface of LS174T and …; assay: immunofluorescence microscopy of LS174T cells, detection with goat anti-Z variant Ig and Alexa488-labeled anti-goat antibody [panel A]
[4] = biological target: T1, CAIX on the surface of LS174T and …; assay: immunofluorescence microscopy of LS174T cells, detection with goat anti-Z variant Ig and Alexa488-labeled anti-goat antibody [panel B]
[5] = biological target: T1, CAIX on the surface of LS174T and …; assay: immunofluorescence microscopy of LS174T cells, detection with goat anti-Z variant Ig and Alexa488-labeled anti-goat antibody [panel C]

B1: His6-(Z04196)2-Cys-NEM (designed binder)
chain: MGSSHHHHHHLQVDAKYAKEWKFASIEIADLPNLTQHQKDAFIFKLWDDPSQSSELLAEAKKLNDAQAPKVDAKYAKEWKFASIEIADLPNLTQHQKDAFIFKLWDDPSQSSELLAEAKKLNDAQAPKVDC
modifications: C-terminal Cys reacted with N-ethylmaleimide (NEM)
notes: head-to-tail dimer in one chain; also called dimeric Z04196
B1: binds [1]; binds [2].

B2: His6-(Z04421)2-Cys-NEM (designed binder)
chain: MGSSHHHHHHLQVDAKYAKEDRYAWTEIHKLPNLTVRQQNAFIYKLWDDPSQSSELLAEAKKLNDAQAPKVDAKYAKEDRYAWTEIHKLPNLTVRQQNAFIYKLWDDPSQSSELLAEAKKLNDAQAPKVDC
modifications: C-terminal Cys reacted with N-ethylmaleimide (NEM)
notes: head-to-tail dimer in one chain; also called dimeric Z04421
B2: binds [3]; binds [2].

B3: His6-(Z04187)2-Cys-NEM (designed binder)
chain: MGSSHHHHHHLQVDAKYAKENLWAGWEIDDLPNLTHSQRNAFIYKLWDDPSQSSELLAEAKKLNDAQAPKVDAKYAKENLWAGWEIDDLPNLTHSQRNAFIYKLWDDPSQSSELLAEAKKLNDAQAPKVDC
modifications: C-terminal Cys reacted with N-ethylmaleimide (NEM)
notes: head-to-tail dimer in one chain; also called dimeric Z04187
B3: binds [4]; binds [2].

B4: His6-(Z04208)2-Cys-NEM (designed binder)
chain: MGSSHHHHHHLQVDAKYAKEHEWAGVEIQSLPNLTTQQKHAFIYKLWDDPSQSSELLAEAKKLNDAQAPKVDAKYAKEHEWAGVEIQSLPNLTTQQKHAFIYKLWDDPSQSSELLAEAKKLNDAQAPKVDC
modifications: C-terminal Cys reacted with N-ethylmaleimide (NEM)
notes: head-to-tail dimer in one chain; also called dimeric Z04208
B4: binds [2]; binds [5].

B5: His6-(Z04191)2-Cys-NEM (designed binder)
chain: MGSSHHHHHHLQVDAKYAKEDVNAWQEIIKLPNLTIFQRDAFIYKLWDDPSQSSELLAEAKKLNDAQAPKVDAKYAKEDVNAWQEIIKLPNLTIFQRDAFIYKLWDDPSQSSELLAEAKKLNDAQAPKVDC
modifications: C-terminal Cys reacted with N-ethylmaleimide (NEM)
notes: head-to-tail dimer in one chain; also called dimeric Z04191
B5: binds [1]; binds [2].
